Source: publication PMC12136788
The other results are listed elsewhere or left out.

T1: UNK ZnF1-3 (human, UniProt Q9C0B0 31-174)
T1 sequence: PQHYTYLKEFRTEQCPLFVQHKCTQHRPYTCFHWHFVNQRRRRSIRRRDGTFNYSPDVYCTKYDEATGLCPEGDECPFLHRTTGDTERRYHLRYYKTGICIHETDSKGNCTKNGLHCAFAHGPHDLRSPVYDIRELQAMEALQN

B1: 37586386_37591453_2401_CDS_ENSG00000102710_ENST00000475892|human|control|control (ssRNA)
RNA: GGGAGUUCUACAGUCCGACGAUCCUGAGCAGAUAAGGCCUGUUCUUGACUGGUUGAACCUUGCUCAGAACCCUGCUCCCCUGGCUGUUGAGGACUACAAGUUGUGGGCUGCUGAGGUUGUUGUGGUGUAAACUGGGAGAGCUGCAACAGAGGAUUGAGCAUCA
B2: chr1:114133195:114133196:+_ENSG00000081026_ENST00000369615|hu_hu|motif|central (ssRNA)
RNA: GGGAGUUCUACAGUCCGACGAUCCAUUUCCCAGUUUUUGGGCAGUGGUUCCAGAGUCUCAUCUCUCAUCAUAUAAUUUCGGAAGUCCAUGGAGCUAUUUGUUUGGUUGUAACUUGGAACAGUCUUCAUCCAGUCAGAUGACUCCAACAGAGGAUUGAGCAUCA
B3: chr7:80571614:80571615:-_ENSMUSG00000078671_ENSMUST00000169922|mus_hu|motif|central (ssRNA)
RNA: GGGAGUUCUACAGUCCGACGAUCAUAUACAAGAAUCAAAAGUACAGCAGUUUUACAAUGUAGGAAAAUUUAAUACAUACGGUAUAAACAACAUUAUUUACAUCAGAAAUCACUAGGACAGUGGCAUUUUUCACAAAUAUAAAUCAACAGAGGAUUGAGCAUCA
B4: chr15:50791314:50791315:+_ENSG00000138592_ENST00000307179|hu_hu|FALSE|FALSE (ssRNA)
RNA: GGGAGUUCUACAGUCCGACGAUCACCAUUAUCCUGAUAAGCAUUUCAAGAGUUGUGUUGCUGAGCCUUUUAAAAGAUAACUAGUUUAUAACCUAUGUCUCCUUAUGUGGCUACAUCAGUUACUCGUGGUCCCAAUGAAGUAUACAACAGAGGAUUGAGCAUCA
B5: chr19:14671312:14671313:-_ENSMUSG00000024642_ENSMUST00000052011|perfect_dup|FALSE|FALSE (ssRNA)
RNA: GGGAGUUCUACAGUCCGACGAUCAGCCUGUAAAAACUGAAACUCUUCCUUAAUCCGAUCACAGGAUUCUGAAAUUGUAAAUUUGAAGGGUUGAGCAGGCUGAUGCGGUGCCGGGUGGCGCGUCUGCGGGUACAUCUUGCUCAGCAACAGAGGAUUGAGCAUCA
B6: chr4:148551591:148551592:-_ENSMUSG00000063077_ENSMUST00000060537|mus_mus|motif|central (ssRNA)
RNA: GGGAGUUCUACAGUCCGACGAUCACCUUACAAAAUUAAAUAUCCCUGUAAAUUAGACAAGAAGCAGCAGGUAACAAAGUCGGUGCUUUGAAAUAUGUGCCAGGAAAAAUCAUGUUUUAGACCCCAAACACCUUUCACAACCAUCAACAGAGGAUUGAGCAUCA
B7: 117886101_117886221_2421_CDS_ENSMUSG00000033295_ENSMUST00000150096|mouse|control|control (ssRNA)
RNA: GGGAGUUCUACAGUCCGACGAUCGCUGUGCGCUGUUCCCACACCAUCCUCCAGAAAUCGCCCAUGGUCUCGGGCAGCGGACCCUGUGUGGCGAUGUAGGCAUUCUGCUUUCGGUAGCCAUCAAUGUAGUUGGCAUUGAUGUAGCAACAGAGGAUUGAGCAUCA
B8: chr3:97503841:97503842:+_ENSG00000113966_ENST00000463745|hu_mus|motif|central (ssRNA)
RNA: GGGAGUUCUACAGUCCGACGAUCAUCUGGGUGAUUCAGAAGGGUAUCAAGCUCUUCUUUGGCCACAACCAUUCUUAACUUAUCACGGCUAUCAAUGACAAAAAUAAUGGCUUGUCCAUCUUUAUAAUAGUGUUCCCAGAGAUUCAACAGAGGAUUGAGCAUCA
B9: chr17:60770872:60770873:+_ENSG00000011028_ENST00000303375|hu_hu|FALSE|FALSE (ssRNA)
RNA: GGGAGUUCUACAGUCCGACGAUCUUGCUUUUCUUUUUUCCUUUUUUUUUAAAAACAAUAAUGGCACAUUUAAAAAAUCAACUACAGAGAAAGGGCCAUGUCUUCGAGUCCAUGUUCACAUUGUCCCACGCUGUCGCACCAGGACAACAGAGGAUUGAGCAUCA
B10: chr2:48034816:48034817:-_ENSG00000138081_ENST00000403359|hu_hu|motif|central (ssRNA)
RNA: GGGAGUUCUACAGUCCGACGAUCAUAUUUCUCAAUCUGAAUACAUGUUAAAAAAAAAAAAUCAAAAGGAACGCAGAAGUGCGGGCUCACAUUUUUACCAUAUUACAAAAGCAAUUGGUACCCAUGUCCAUAAAGGCAGCAACACAACAGAGGAUUGAGCAUCA
B11: 76784763_76784883_3969_CDS_ENSG00000156650_ENST00000287239|human|control|control (ssRNA)
RNA: GGGAGUUCUACAGUCCGACGAUCCACUUCAAUCUCACAGGUAGGCUCCAGCUGUGGCAUUGGCCUCUCUUCAUCUGAGUUGUCAAAGGGCUCAUUCAGUACUUCUGUCGUCUCUGAAAUGGUCUCUGUUGUUACACUGCUGUUCAACAGAGGAUUGAGCAUCA
B12: chr7:156759685:156759686:+_ENSG00000146909_ENST00000275820|hu_hu|FALSE|FALSE (ssRNA)
RNA: GGGAGUUCUACAGUCCGACGAUCCACCAGAUGAACCAAAUUAGAGAAAUUCGUAGCUGGCAAGUUUUCCAAGUCCCGAAAUUUGUCCCAUAUGCUGAACUGGAAAGUCAUCUGAAAUCUCCUUUCAUAUUCACAGAAUUUGCUCAACAGAGGAUUGAGCAUCA
B13: chr6:136599331:136599332:-_ENSG00000029363_ENST00000527536|hu_mus|FALSE|FALSE (ssRNA)
RNA: GGGAGUUCUACAGUCCGACGAUCGGGGGCAUCUGAGCAUGAUGAACUCUGACUGGGUGGUGUAGCAAUAGGUGAAGGACUAUGAGGUGACCUUGGACUAUUAUCAUAAGCUGAAAGGCCAGGCCAAAUAUCACCAGAAGUAGCCAACAGAGGAUUGAGCAUCA
B14: chr4:140556289:140556290:+_ENSMUSG00000036622_ENSMUST00000037055|mus_mus|mus_mus_mus_hu_False|1_88 (ssRNA)
RNA: GGGAGUUCUACAGUCCGACGAUCGAUGGAGCUCACCAGGCCCCCUUUGGCUGUGCAGAACCCUGUGCGGGUCACCACUGCCAGGACGUGCGGUCCCACAUAGGCCCGGGCCUGCAAGAUGAGGGUCCCGCAGAAGAGGGUGUGCAACAGAGGAUUGAGCAUCA

Each binder was assayed against T1, UNK ZnF1-3 (assay: nsRBNS (natural sequence RNA bind-n-seq); RBNS binding buffer (assumed for nsRBNS): 25 mM Tris pH 7.5, 150 mM KCl, 3 mM MgCl2, 0.01% Triton X-100, 500 ug/ml BSA, 20 U/ml SUPERase-In, 4 C; UNK is unkempt and MSI1 is Musashi-1; names of the RNAs are library labels; protein concentration not given here; high values mean tight binding).

Point of comparison: B10, binding signal 1.83 enrichment R. Against it:
- B1 — lower, 1.12 enrichment R
- B2 — lower, 0.629 enrichment R
- B3 — lower, 1.01 enrichment R
- B4 — lower, 1.01 enrichment R
- B5 — higher, 1.96 enrichment R
- B6 — lower, 1.58 enrichment R
- B7 — lower, 0.579 enrichment R
- B8 — lower, 0.999 enrichment R
- B9 — lower, 1.12 enrichment R
- B11 — lower, 0.71 enrichment R
- B12 — lower, 1.55 enrichment R
- B13 — lower, 1.74 enrichment R
- B14 — lower, 1.15 enrichment R
